Assay [1] has as its target human FcRn (with beta2-microglobulin) (human). Description: SPR, pH 7.0. On the technique in general: SPR reads the build-up and loss of mass on a sensor chip optically.
The target is the same in assay [2]. Kind of assay: SPR, pH 7.0. The source holds these as a separate data set.

Read-outs that look alike come from different tables or passages of the source.

This note sets out measurements from US10618965 (dated 2020).

B1: F760 (antibody)
chain 1: QVQLQESGPGLVKPSETLSLTCAVSGHSISHDHAWSWVRQPPGEGLEWIGFISYSGITNYNPSLQGRVTISRDNSKNTLYLQMNSLRAEDTAVYYCARSLARTTAMDYWGEGTLVTVSS[here human IgG1 constant region with L235R S239K (EU numbers) without letters]
chain 2: DIQMTQSPSSLSASVGDRVTITCRASQDISSYLNWYQQKPGKAPKLLIYYTSRLHSGVPSRFSGSGSGTDFTFTISSLQPEDIATYYCQQGNTLPYTFGQGTKVEIKRTVAAPSVFIFPPSDEQLKSGTASVVCLLNNFYPREAKVQWKVDNALQSGNSQESVTEQDSKDSTYSLSSTLTLSKADYEKHKVYACEVTHQGLSSPVTKSFNRGEC
With B1, in assay [1], the binding result is on record as “no binding”.

B2: IgG4 (antibody)
chain 1: QVQLQESGPGLVKPSETLSLTCAVSGHSISHDHAWSWVRQPPGEGLEWIGFISYSGITNYNPSLQGRVTISRDNSKNTLYLQMNSLRAEDTAVYYCARSLARTTAMDYWGEGTLVTVSSASTKGPSVFPLAPCSRSTSESTAALGCLVKDYFPEPVTVSWNSGALTSGVHTFPAVLQSSGLYSLSSVVTVPSSSLGTKTYTCNVDHKPSNTKVDKRV[here human IgG4 Fc with S228P (EU numbers) without letters]
chain 2: B1 chain 2
B2: the binding result in assay [2] is “no binding”.
